The text below walks through data of the supplement of paper PMC9588766.

Counter-ions that a name gives are not always drawn. The full ranking holds about 1,900 compounds; the median of “cell viability of compound + 1 nM pemigatinib relative to pemigatinib-only (DMSO) wells” is about 0.95, and the lowest 2% start at about 0.22. This is one part of the list.

This assay deals with PDC-DUC18828. As to the kind of experiment: cell viability of compound + 1 nM pemigatinib relative to pemigatinib-only (DMSO) wells (fraction); PDC-DUC18828 is a patient-derived cholangiocarcinoma cell line; higher = less growth inhibition. To be noted: first compound 1 µM; pemigatinib concentration 1 nM; 72 h. How it is done:
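Selleck Bioactive library screen in the patient-derived FGFR2 fusion-positive ICC cell line PDC-DUC18828 (500 cells/well). Each compound was tested at 1 uM with 1 nM pemigatinib, in triplicate, for 72 h. Viability was read by CellTiter-Glo and normalised to plate DMSO controls. Value is the paper's averaged normalised viability.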
Turning to `CC(C)N(C[C@H]1O[C@@H](n2cnc3c(N)ncnc32)[C@H](O)[C@@H]1O)[C@H]1C[C@@H](CCc2nc3cc(C(C)(C)C)ccc3[nH]2)C1` + CCN1C(=O)N(c2c(F)c(OC)cc(OC)c2F)Cc2cnc3[nH]c(CN4CCOCC4)cc3c21 [pemigatinib], the cell viability worked out at 0.91. In the case of `COC(c1ccccc1)(c1ccccc1)[C@H](Oc1nc(C)cc(C)n1)C(=O)O` [Ambrisentan] + CCN1C(=O)N(c2c(F)c(OC)cc(OC)c2F)Cc2cnc3[nH]c(CN4CCOCC4)cc3c21 [pemigatinib], the cell viability came out at 1.02. Regarding `C[N+]1(C)[C@@H]2CC[C@H]1C[C@@H](OC(=O)C(O)c1ccccc1)C2` (stereo partly specified) [Homatropine Methylbromide] + CCN1C(=O)N(c2c(F)c(OC)cc(OC)c2F)Cc2cnc3[nH]c(CN4CCOCC4)cc3c21 [pemigatinib], the cell viability is 0.913. Take `O=c1cc(N2CCOCC2)oc2c(-c3cccc4c3sc3ccccc34)cccc12` + CCN1C(=O)N(c2c(F)c(OC)cc(OC)c2F)Cc2cnc3[nH]c(CN4CCOCC4)cc3c21 [pemigatinib]: the cell viability is 0.951.

Regarding `CC(C)(C(=O)O)c1ccc(C(O)CCCN2CCC(C(O)(c3ccccc3)c3ccccc3)CC2)cc1` (stereo unspecified) [Fexofenadine HCl] + CCN1C(=O)N(c2c(F)c(OC)cc(OC)c2F)Cc2cnc3[nH]c(CN4CCOCC4)cc3c21 [pemigatinib], the cell viability amounted to 0.909. For `COc1ccc([C@@H]2CC(=O)c3c(O)cc(O[C@@H]4O[C@H](CO[C@@H]5O[C@@H](C)[C@H](O)[C@@H](O)[C@H]5O)[C@@H](O)[C@H](O)[C@H]4O)cc3O2)cc1O` [Hesperidin] + CCN1C(=O)N(c2c(F)c(OC)cc(OC)c2F)Cc2cnc3[nH]c(CN4CCOCC4)cc3c21 [pemigatinib], the cell viability was found to be 0.949. Turning to `O=C[C@H](O)[C@@H](O)[C@H](O)CO` [Xylose] + CCN1C(=O)N(c2c(F)c(OC)cc(OC)c2F)Cc2cnc3[nH]c(CN4CCOCC4)cc3c21 [pemigatinib], the cell viability is 1.04. As to `CC(=O)O[C@]1(C(C)=O)CC[C@H]2[C@@H]3C[C@H](C)C4=CC(=O)C=C[C@]4(C)[C@@]3(F)[C@@H](O)C[C@@]21C` [Fluorometholone Acetate] + CCN1C(=O)N(c2c(F)c(OC)cc(OC)c2F)Cc2cnc3[nH]c(CN4CCOCC4)cc3c21 [pemigatinib], the cell viability was found to be 0.854. In the case of `O=C(Nc1ccccc1)c1cc([N+](=O)[O-])ccc1Cl` + CCN1C(=O)N(c2c(F)c(OC)cc(OC)c2F)Cc2cnc3[nH]c(CN4CCOCC4)cc3c21 [pemigatinib], the cell viability amounted to 0.909. For `C=C1C(=O)O[C@@H]2/C=C(\C)CC/C=C(\C)CC[C@@H]12` [Costunolide] + CCN1C(=O)N(c2c(F)c(OC)cc(OC)c2F)Cc2cnc3[nH]c(CN4CCOCC4)cc3c21 [pemigatinib], the cell viability amounted to 0.917.

Take `CCCc1cc(=O)[nH]c(=S)[nH]1` [Propylthiouracil] + CCN1C(=O)N(c2c(F)c(OC)cc(OC)c2F)Cc2cnc3[nH]c(CN4CCOCC4)cc3c21 [pemigatinib]: the cell viability came out at 0.939.

Consider `Cc1onc(-c2ccccc2)c1-c1ccc(S(N)(=O)=O)cc1` [Valdecoxib] + CCN1C(=O)N(c2c(F)c(OC)cc(OC)c2F)Cc2cnc3[nH]c(CN4CCOCC4)cc3c21 [pemigatinib], for which the cell viability was 0.913. As for `COc1ccc(CCN(C)CCCC(C#N)(c2ccc(OC)c(OC)c2)C(C)C)cc1OC` (stereo unspecified) [Verapamil HCl] + CCN1C(=O)N(c2c(F)c(OC)cc(OC)c2F)Cc2cnc3[nH]c(CN4CCOCC4)cc3c21 [pemigatinib], the cell viability is 1.02. As to `CO/N=C(\C(=O)N[C@@H]1C(=O)N2C(C(=O)OCOC(=O)C(C)(C)C)=C(/C=C\c3scnc3C)CS[C@H]12)c1csc(N)n1` [Cefditoren Pivoxil] + CCN1C(=O)N(c2c(F)c(OC)cc(OC)c2F)Cc2cnc3[nH]c(CN4CCOCC4)cc3c21 [pemigatinib], the cell viability was determined as 0.972. With `Oc1ncnc2[nH]ncc12` [Allopurinol] + CCN1C(=O)N(c2c(F)c(OC)cc(OC)c2F)Cc2cnc3[nH]c(CN4CCOCC4)cc3c21 [pemigatinib], the cell viability is 0.987. As to `CN(N=O)C(=O)NC1C(O)OC(CO)C(O)C1O` (stereo unspecified) [Streptozotocin (STZ)] + CCN1C(=O)N(c2c(F)c(OC)cc(OC)c2F)Cc2cnc3[nH]c(CN4CCOCC4)cc3c21 [pemigatinib], the cell viability was found to be 0.991.

For the compound `C=C[C@]1(C)C[C@@H](OC(=O)CS[C@@H]2C[C@H]3CC[C@@H](C2)N3C)[C@]2(C)[C@H](C)CC[C@]3(CCC(=O)[C@H]32)[C@@H](C)[C@@H]1O` [Retapamulin] + CCN1C(=O)N(c2c(F)c(OC)cc(OC)c2F)Cc2cnc3[nH]c(CN4CCOCC4)cc3c21 [pemigatinib], the cell viability stood at 0.93. The figure for `O=C(CCc1ccc(O)cc1)c1c(O)cc(O)cc1O[C@@H]1O[C@H](CO)[C@@H](O)[C@H](O)[C@H]1O` [Phlorizin] + CCN1C(=O)N(c2c(F)c(OC)cc(OC)c2F)Cc2cnc3[nH]c(CN4CCOCC4)cc3c21 [pemigatinib] is 0.918; for `COc1ccccc1C(=O)Nc1cc2c(cc1N1CCCC1)n(C)c(=O)n2C` + CCN1C(=O)N(c2c(F)c(OC)cc(OC)c2F)Cc2cnc3[nH]c(CN4CCOCC4)cc3c21 [pemigatinib] it is 0.942.

In the case of `C=CC(=O)Nc1cccc(C)c1Nc1ncc2cc(-c3c(Cl)c(OC)cc(OC)c3Cl)ccc2n1` + CCN1C(=O)N(c2c(F)c(OC)cc(OC)c2F)Cc2cnc3[nH]c(CN4CCOCC4)cc3c21 [pemigatinib], the cell viability amounted to 0.8. Consider `C[C@]12CCC(=O)C=C1CC[C@@H]1[C@@H]2[C@@H](O)C[C@@]2(C)[C@H]1CC[C@]2(O)C(=O)CO` [Hydrocortisone] + CCN1C(=O)N(c2c(F)c(OC)cc(OC)c2F)Cc2cnc3[nH]c(CN4CCOCC4)cc3c21 [pemigatinib], for which the cell viability is 0.913. On to `O=C(C=Cc1ccccc1)NC(NC(=S)Nc1ccc(Cl)cc1)C(Cl)(Cl)Cl` (stereo unspecified) + CCN1C(=O)N(c2c(F)c(OC)cc(OC)c2F)Cc2cnc3[nH]c(CN4CCOCC4)cc3c21 [pemigatinib], for which the cell viability is 0.939. As for `Nc1nc(Cl)nc2c1ncn2[C@H]1C[C@H](O)[C@@H](CO)O1` [Cladribine] + CCN1C(=O)N(c2c(F)c(OC)cc(OC)c2F)Cc2cnc3[nH]c(CN4CCOCC4)cc3c21 [pemigatinib], the cell viability was 0.409.

As to `O=C([C@@H](Cc1cccc(C(F)(F)F)c1)NS(=O)(=O)c1cc(F)c2c(c1)CCNC2)N1CCCC1` + CCN1C(=O)N(c2c(F)c(OC)cc(OC)c2F)Cc2cnc3[nH]c(CN4CCOCC4)cc3c21 [pemigatinib], the cell viability came to 1.05.

On to `Cc1cc(C(=O)NOCCO)c(Nc2ccc(I)cc2F)n(C)c1=O` + CCN1C(=O)N(c2c(F)c(OC)cc(OC)c2F)Cc2cnc3[nH]c(CN4CCOCC4)cc3c21 [pemigatinib], for which the cell viability worked out at 0.48. Take `CC1(C)S[C@@H]2[C@H](NC(=O)[C@H](N)c3ccc(O)cc3)C(=O)N2[C@H]1C(=O)O` [Amoxicillin] + CCN1C(=O)N(c2c(F)c(OC)cc(OC)c2F)Cc2cnc3[nH]c(CN4CCOCC4)cc3c21 [pemigatinib]: the cell viability amounted to 0.858. With `CC1(C)S[C@@H]2[C@H](NC(=O)[C@H](N)c3ccc(O)cc3)C(=O)N2[C@H]1C(=O)O` [Amoxicillin Sodium] + CCN1C(=O)N(c2c(F)c(OC)cc(OC)c2F)Cc2cnc3[nH]c(CN4CCOCC4)cc3c21 [pemigatinib], the cell viability is 1.03. `COc1cccc2c1C(=O)c1c(O)c3c(c(O)c1C2=O)C[C@@](O)(C(=O)CO)C[C@@H]3O[C@H]1C[C@H](N)[C@H](O)[C@H](C)O1` [Doxorubicin (Adriamycin)] + CCN1C(=O)N(c2c(F)c(OC)cc(OC)c2F)Cc2cnc3[nH]c(CN4CCOCC4)cc3c21 [pemigatinib]: the cell viability turned out to be 0.137. `OCCOCCN1CCN(C2=Nc3ccccc3Sc3ccccc32)CC1` [Quetiapine Fumarate] + CCN1C(=O)N(c2c(F)c(OC)cc(OC)c2F)Cc2cnc3[nH]c(CN4CCOCC4)cc3c21 [pemigatinib]: the cell viability came out at 0.983. Take `Cc1nc(Nc2cnn(C3CCNCC3)c2)nc2c1N(C)C(=O)c1cc3ccccc3cc1N2C` + CCN1C(=O)N(c2c(F)c(OC)cc(OC)c2F)Cc2cnc3[nH]c(CN4CCOCC4)cc3c21 [pemigatinib]: the cell viability amounted to 0.926.

As for `Cc1[nH]c2ccccc2c1CCNC(=O)c1cccs1` + CCN1C(=O)N(c2c(F)c(OC)cc(OC)c2F)Cc2cnc3[nH]c(CN4CCOCC4)cc3c21 [pemigatinib], the cell viability is 0.957. Consider `N=C(N)c1ccc(OCCCCCOc2ccc(C(=N)N)cc2)cc1` [Pentamidine] + CCN1C(=O)N(c2c(F)c(OC)cc(OC)c2F)Cc2cnc3[nH]c(CN4CCOCC4)cc3c21 [pemigatinib], for which the cell viability is 0.884.

With `N#Cc1c(O)c2c(-c3ccc(-c4ccccc4O)cc3)csc2[nH]c1=O` + CCN1C(=O)N(c2c(F)c(OC)cc(OC)c2F)Cc2cnc3[nH]c(CN4CCOCC4)cc3c21 [pemigatinib], the cell viability amounted to 0.976. The figure for `CCCCC(=O)O[C@H]1CC[C@H]2[C@@H]3CCc4cc(O)ccc4[C@H]3CC[C@]12C` [Estradiol valerate] + CCN1C(=O)N(c2c(F)c(OC)cc(OC)c2F)Cc2cnc3[nH]c(CN4CCOCC4)cc3c21 [pemigatinib] is 0.881. Turning to `Cc1nc2ccc(-n3ncc(C(=O)c4cc5ccccc5[nH]4)c3N)cc2[nH]1` + CCN1C(=O)N(c2c(F)c(OC)cc(OC)c2F)Cc2cnc3[nH]c(CN4CCOCC4)cc3c21 [pemigatinib], the cell viability is 0.886.

As to `Cc1ccc(Nc2c(F)cccc2Cl)c(CC(=O)O)c1` [Lumiracoxib] + CCN1C(=O)N(c2c(F)c(OC)cc(OC)c2F)Cc2cnc3[nH]c(CN4CCOCC4)cc3c21 [pemigatinib], the cell viability was determined as 0.855.
